Data published in PubChem BioAssay AID2675 (National Center for Advancing Translational Sciences (NCATS), 2010).
The whole screen tested about 280,000 compounds, of which about 100 (0.036%) were called active. The shares of active, inactive and inconclusive entries below differ from those in the screen. The call rests on the fitted dose curve; in most records, active means well fitted inhibition curve with a large enough effect in the signal ratio, with a control signal flat (not every such curve was filed as active); inconclusive means small, poorly fitted or top-dose-only effect, or effect the other way, or a change in a side signal; inactive means no such curve, though single readings can be large or run the other way; the % refers to the signal ratio. Potencies beside an inconclusive call are fits to weak or partial responses and may not hold up. “Side channel” marks fits to a control or component signal instead of the main read-out.

Target: Muscleblind-like protein 1 (Homo sapiens) (UniProt Q9NR56)
Sequence of UniProt Q9NR56 (Q9NR56 whole entry, looked up): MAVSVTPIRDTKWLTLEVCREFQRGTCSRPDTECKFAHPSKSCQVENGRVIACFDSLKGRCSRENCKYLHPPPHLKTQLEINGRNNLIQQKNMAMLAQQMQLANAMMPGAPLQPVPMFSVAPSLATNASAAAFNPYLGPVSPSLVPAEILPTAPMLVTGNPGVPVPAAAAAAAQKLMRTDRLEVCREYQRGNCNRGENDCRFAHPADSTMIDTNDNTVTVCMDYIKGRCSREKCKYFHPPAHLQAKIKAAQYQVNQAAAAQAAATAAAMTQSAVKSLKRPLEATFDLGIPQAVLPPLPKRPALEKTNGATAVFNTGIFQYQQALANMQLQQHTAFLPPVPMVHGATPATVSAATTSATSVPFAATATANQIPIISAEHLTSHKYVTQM
Assay: qHTS Assay for Inhibitors of MBNL1-poly(CUG) RNA binding
Conditions: TR-FRET MBNL1-His/biotin-(CUG)12 binding, 665/545 ratio; series mostly up to 57.5 µM
Method in brief: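 Compound titration spanned 92 nM–58 uM against the MBNL1-His/biotin-(CUG)12 complex. After 60 min at room temperature with 5 nM streptavidin-XL665 and 0.055 ng/ul terbium anti-His, ratiometric 665/545 nm emission (Ex 340 nm) normalized to controls.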
Potency means the concentration at half of the fitted maximal effect; tags describe the fitted curve by direction and shape or compound fluorescence and quenching.

SMILES | Potency
CCNC(=O)NC(=O)c1csc([N+](=O)[O-])c1 | inconclusive: 2 µM [quencher, side channel, full curve]
CCN1/C(=C/C(C)=C/c2sc3ccccc3[n+]2CC)Sc2ccccc21 | inconclusive: 14.1 µM [quencher, side channel, partial curve]
O=C(O)CC1S/C(=N/N=C/c2ccc(-c3ccccc3[N+](=O)[O-])o2)NC1=O (centres undefined) | inconclusive: 28.2 µM [quencher, side channel, partial curve]
CCc1c(C)c(C#N)c2nc3ccccc3n2c1N1CCN(c2cc(C)ccn2)CC1 | inconclusive: 28.2 µM [fluorescent, side channel, single point]
Cc1nnc(NC(=O)c2ccco2)s1 | inactive
COc1ccc(CNC(=O)C2CCCN(S(=O)(=O)c3cccc4nsnc34)C2)cc1 (centres undefined) | inconclusive: 7.94 µM [quencher, side channel, partial curve]
COc1ccc(OC)c(Nc2nc(-c3cccs3)cs2)c1 | inconclusive: 39.8 µM [quencher, side channel, single point]
Cc1cc(C(=O)CSc2nncs2)c(C)n1Cc1ccco1 | inactive
Cn1nc(-c2ccccc2)c2cc([N+](=O)[O-])ccc21 | inconclusive: 11.2 µM [quencher, side channel, partial curve]
C=CCNC(=S)Nc1nc2c(cc1C(=O)OCC)COC(C)(C)C2 | inactive
C/C(=C/CCC(C)[C@H]1CC[C@@]2(C)C3=C(CC[C@]12C)[C@@]1(C)CCC(=O)C(C)(C)[C@@H]1CC3)C(=O)O (some centres undefined) | inactive
COc1ccc(Cl)cc1NC(=O)CN(C)CC(=O)Nc1ccc(Br)cc1 | inactive
Cn1ncc([N+](=O)[O-])c1C(=O)N/N=C/c1cccc([N+](=O)[O-])c1 | inconclusive: 14.1 µM [quencher, side channel, partial curve]
O=C(CNC(=O)c1ccco1)NCC(=O)OCC(=O)c1ccc(Cl)c([N+](=O)[O-])c1 | inconclusive: 11.2 µM [quencher, side channel, partial curve]
CCN(C(=O)c1cc2c(s1)-c1ccccc1S(=O)(=O)C2)c1cc(OC)ccc1OC | inconclusive: 28.2 µM [quencher, side channel, single point]
C=CCN1C=CC(=CC=C(C#N)C#N)C=C1 | inconclusive: 15.8 µM [quencher, side channel, partial curve]
COc1ccc(N=C2C(=O)Nc3c(C)cccc32)cc1 | inconclusive: 14.1 µM [quencher, side channel, partial curve]
CC(=O)c1cccc(NC(=O)/C(=C\c2ccco2)NC(=O)c2ccco2)c1 | inconclusive: 28.2 µM [quencher, side channel, single point]
Nc1ccc(O)cc1C(=O)OCC(=O)C12CC3CC(CC(C3)C1)C2 | inactive
O=C(Nc1ccc(N2C(=O)C3C4C=CC(C4)C3C2=O)cc1)Nc1cccnc1 (centres undefined) | inconclusive: 63.1 µM [inhibitor, partial curve]

SMILES | Potency
CCOC(=O)N1CCN(Cc2nc3cc([N+](=O)[O-])ccc3n2C)CC1 | inconclusive: 28.2 µM [quencher, partial curve]
O=C(CSc1nc2nc(-c3cccs3)cc(C(F)(F)F)c2c(=O)[nH]1)C(F)(F)F | inconclusive: 2 µM [quencher, side channel, full curve]
COc1ccc(/C=C2\SC(=S)N(CCC(=O)N(CCO)Cc3ccccc3)C2=O)cc1OC | inconclusive: 14.1 µM [quencher, side channel, partial curve]
CCCCOC(=O)C1=C(C)NC(=O)NC1c1cccc([N+](=O)[O-])c1 (centres undefined) | inconclusive: 25.1 µM [quencher, side channel, single point]
c1cncc(-c2nc(-c3cccs3)cs2)c1 | inconclusive: 15.8 µM [quencher, side channel, partial curve]
COC(=O)N/N=C/c1ccc([N+](=O)[O-])s1 | inconclusive: 3.98 µM [quencher, side channel, partial curve]
COc1cc2ncnc(NCc3ccccc3C)c2cc1OC | inconclusive: 5.01 µM [quencher, side channel, single point]
Cc1[nH][nH]c(=O)c1C(c1ccc(-c2ccc(C(=O)O)cc2)o1)c1c(C)[nH][nH]c1=O | inconclusive: 17.8 µM [quencher, side channel, partial curve]
O=C(NNS(=O)(=O)c1ccc(F)cc1)c1ccc([N+](=O)[O-])cc1Cl | inconclusive: 28.2 µM [quencher, side channel, partial curve]
Cc1cc(C)nc(N/N=C/c2ccc([N+](=O)[O-])o2)n1 | inconclusive: 5.01 µM [quencher, partial curve]
Cc1ccc(-c2cc(C(=O)Nc3cccnc3)c3ccccc3n2)s1 | inconclusive: 28.2 µM [quencher, side channel, single point]
COc1ccc(/C=N/Nc2nn3cnnc3c3ccccc23)cc1 | inconclusive: 14.1 µM [quencher, side channel, partial curve]
O=c1[nH]c(NCCCO)nc2c1C1(CCCC1)Cc1ccccc1-2 | inactive
O=[N+]([O-])c1ccc(N2CCOCC2)cc1N1CCCCC1 | inconclusive: 25.1 µM [quencher, side channel, partial curve]
CN1C(=O)c2ccc(C(=O)Nc3nccs3)cc2C1=O | inconclusive: 12.6 µM [quencher, side channel, partial curve]
CCOC(=O)c1sc2nc(N3CCOCC3)c3c(c2c1N)CC(C(C)C)OC3 (centres undefined) | inconclusive: 20 µM [fluorescent, side channel, single point]
Cn1c2ccccc2c2nnc(SCC(N)=O)nc21 | inconclusive: 11.2 µM [quencher, side channel, partial curve]
COc1cc(/C=N/NC2=NS(=O)(=O)c3ccccc32)cc(OC)c1OC | inconclusive: 39.8 µM [quencher, single point]
CC(C)C(=O)Nc1ccccc1-c1nc2ccccc2[nH]c1=O | inconclusive: 15.8 µM [quencher, side channel, partial curve]
O=C(Nc1ccc(NC(=O)c2sc3ccccc3c2Cl)cc1Cl)c1ccco1 | inactive

SMILES | Potency
O=C(NC1CCCCC1)C(c1ccncc1)N(Cc1ccc2c(c1)OCO2)C(=O)c1cnsn1 (centres undefined) | inconclusive: 0.708 µM [quencher, side channel, single point]
CC(C)c1cc(C(=O)NCc2ccco2)no1 | inconclusive: 2 µM [quencher, side channel, partial curve]
Cc1cc(C)c(C)c(OCC(O)CN2CCN(c3ccccn3)CC2)c1 (centres undefined) | inactive
C=CCn1c(SCC(=O)Nc2ccc3c(c2)OCO3)nnc1-c1ccccc1 | inactive
Cc1nonc1OCCNCCNc1ccccc1[N+](=O)[O-] | inconclusive: 28.2 µM [quencher, side channel, partial curve]
CNS(=O)(=O)c1cccc(C(=O)OCC(=O)Nc2ccc(OC)cc2[N+](=O)[O-])c1 | inconclusive: 14.1 µM [quencher, side channel, partial curve]
CCCNC(=O)c1ccc2c(c1)S(=O)(=O)c1ccccc1C2=O | inconclusive: 6.31 µM [quencher, side channel, partial curve]
Cn1c(CN2CCN(C(=O)c3ccco3)CC2)nc2cc([N+](=O)[O-])ccc21 | inconclusive: 25.1 µM [quencher, single point]
O=C(CSCc1ccc([N+](=O)[O-])cc1)NN=C1CCCCCC1 | inconclusive: 22.4 µM [quencher, side channel, single point]
CN(C(=O)c1cc2n(n1)C(C(F)(F)F)CC(c1ccco1)N2)c1ccc(OC(F)(F)F)cc1 (centres undefined) | inactive
O=C(Nc1cccnc1)C1CCC(CNS(=O)(=O)c2cccc3nsnc23)CC1 (centres undefined) | inconclusive: 14.1 µM [quencher, side channel, partial curve]
CC1CCCN(C2=C(NS(=O)(=O)c3ccc(Cl)cc3)C(=O)c3ccccc3C2=O)C1 (centres undefined) | inconclusive: 12.6 µM [quencher, partial curve]
Cc1cc([N+](=O)[O-])ccc1NC(=O)C(C)NC1CCCCC1 (centres undefined) | inconclusive: 22.4 µM [quencher, side channel, single point]
Cc1cc(Sc2ncnc(N)c2[N+](=O)[O-])ncn1 | inconclusive: 11.2 µM [quencher, side channel, partial curve]
C=CCN(C(=O)CC(NC(C)=O)c1ccccc1)c1nc(-c2ccc(S(C)(=O)=O)cc2)cs1 (centres undefined) | inactive
Cc1ccc2c3c(cccc13)-c1ccccc1C2=O | inconclusive: 28.2 µM [quencher, side channel, partial curve]
O=C(CSc1cccc[n+]1[O-])Nc1cc2c(cc1Cl)C(=O)c1ccccc1C2=O | inconclusive: 1.26 µM [quencher, side channel, full curve]
C[n+]1cccc2c(Br)ccc([O-])c21 | inconclusive: 17.8 µM [quencher, side channel, partial curve]
c1ccc2c(Nc3nncs3)c3ccccc3nc2c1 | inconclusive: 3.16 µM [quencher, side channel, full curve]
